According to PubChem BioAssay AID1346428 (National Center for Advancing Translational Sciences (NCATS), 2018):
Among all 48,000 compounds or so, about 1,200 (2.5%) were called active. Inconclusive results (about 2%) are left out.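 Rule for the calls: active = activation of at least 60% and not above a set upper limit (about 1 call in 100 departs from these limits); inconclusive = activation of 40% to 60%, or above that upper limit; inactive = activation under 40%.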 The list shows a part of the results.

What follows are compounds tested against Probable G-protein coupled receptor 32 (Homo sapiens) (UniProt O75388) (assay: qHTS for Agonists of Human Resolvin D1 Receptor DRV1). Settings: CHO-K1 GPR32 beta-arrestin PathHunter luminescence, 90 min; at 76.9 µM; active compounds read high; zero percent set by DMSO-only wells.
Chain of UniProt O75388 (O75388 whole entry, looked up, the tested form may be a part): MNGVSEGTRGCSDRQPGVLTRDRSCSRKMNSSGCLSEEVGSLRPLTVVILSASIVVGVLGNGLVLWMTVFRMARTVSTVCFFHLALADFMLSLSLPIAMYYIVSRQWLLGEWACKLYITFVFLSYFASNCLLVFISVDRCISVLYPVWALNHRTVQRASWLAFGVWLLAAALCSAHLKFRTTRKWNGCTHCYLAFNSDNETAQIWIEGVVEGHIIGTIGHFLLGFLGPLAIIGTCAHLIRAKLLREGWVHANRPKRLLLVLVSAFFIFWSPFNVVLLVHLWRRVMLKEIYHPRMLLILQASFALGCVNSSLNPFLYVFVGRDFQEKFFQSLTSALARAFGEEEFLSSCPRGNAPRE
Procedure, shortened: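 PathHunter enzyme-fragment complementation, CHO-K1 GPR32 stable line; 2,500 cells/well, overnight attach; cpd 90 min 37 °C 5% CO2; detection reagent 1 h RT; chemiluminescence. DMSO = EC0.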
Note: 0% is about no effect.

activation, inactive:
Cn1c(=O)c(=O)n(C)c2cc(S(=O)(=O)Nc3ccc(Cl)c(C(F)(F)F)c3)ccc21 -7.28%
Fc1ccc(Nc2c(-c3ccco3)nc3ccccn23)cc1 3.39%
CCN(C(=O)CSc1nc2ccccc2n1CC(=O)N1CCCC(C)C1)c1ccccc1 (stereo not drawn) -6.72%
CCOc1ccc(CCNC(=O)C2CCN(Cc3nc(-c4ccccc4C)oc3C)CC2)cc1OCC 0.494%
O=C(CC(NCc1cccnc1)C(=O)O)Nc1ccc(O)cc1 (stereo not drawn) 18.4%
CNCCC(Oc1ccccc1C)c1ccccc1 (stereo not drawn) -13.2%
Cc1ccc(C2c3[nH]c4ccccc4c3CCN2C(=O)CCc2ccccc2)cc1 (stereo not drawn) -30.3%
CCOc1ccc(CNC(=O)Cc2ccc(NC(=O)N3CCCCc4ccccc43)cc2)cc1OC -20.6%
Cc1ccc(NC(=O)C2CCC(CNS(=O)(=O)c3ccc4c(c3)C(C)(C)C(=O)N4C)CC2)cc1 (stereo not drawn) -6.1%
CC(C)(C)c1ccc(C(=O)N2CCN(Cc3cc(=O)n4nc(-c5ccccc5F)sc4n3)CC2)cc1 -10.9%
Cc1cc(=O)oc2cc(OCC(=O)Nc3c(C(C)C)cccc3C(C)C)ccc12 -1.21%
Clc1ccc(-c2nnn3c2nc(NCc2ccc4c(c2)OCO4)c2ccccc23)cc1 -0.93%
COc1cc(OC)c(NC(=O)Cn2cnc3nc4c(cc3c2=O)CCCC4)cc1Cl -11.8%
CCOc1ccc(C(NC(=O)c2cc(OC)c(OC)c(OC)c2)c2cc(Cl)c3cccnc3c2O)cc1 (stereo not drawn) -16.5%
Cc1ccc2nc(CN3CCN(S(=O)(=O)c4ccccc4)CC3)oc2c1 14.6%
CC(C)Oc1cccc(C(=O)Nc2ccc3oc(-c4ccccc4)nc3c2)c1 -8.6%
Cc1ccc(S(=O)(=O)N(CC(=O)Nc2c(C)cccc2C)c2cccc(Cl)c2)cc1 -25.1%
Cc1nc2nc(C)c(CCC(=O)NCCc3ccccc3)c(C)n2n1 -5.55%
O=C(Cn1cc(S(=O)(=O)Cc2ccccc2Cl)c2ccccc21)Nc1cccc(C(F)(F)F)c1 5.6%
CCc1ccc(NC(=O)CSc2nc3ccccc3c(=O)n2CCC(=O)NC2CCCCC2)cc1 -8.95%
COC(=O)c1cc(C)nc2c1c(=O)nc(SCc1c(C)cc(C)cc1C)n2C1CC1 2.34%
CCC(=O)N1c2ccc(S(=O)(=O)N3CCCCCC3)cc2CC1C (stereo not drawn) 9.62%
CCC(Sc1nc2cc3c(cc2c(=O)n1CCCC(=O)NCc1ccc2c(c1)OCO2)OCO3)C(=O)NCCCOC (stereo not drawn) -17.1%
